In all, about 410,000 compounds went through this assay and about 6,400 (1.6%) were called active. Inconclusive results, whose numbers are uncertain, are shown with a selection of clear calls. The call rests on the fitted dose curve; in most records, active means well fitted inhibition curve with a large enough effect; inconclusive means small, poorly fitted or top-dose-only effect; inactive means no such curve, though single readings can be large or run the other way. Potencies of inconclusive entries are left out as doubtful fits.
The molecules below were run against Glucagon-like peptide 1 receptor (Homo sapiens) (UniProt P43220) (assay: qHTS of GLP-1 Receptor Inverse Agonists (Inhibition Mode)). Conditions: HEK293 GLP-1R CRE-luciferase, luminescence, 24 h, GLP-1R form is constitutively active; activity change, negative = inhibition: at 38.3 µM (top of the series) unless noted.
Outline: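 Cells are plated, allowed 12 hours at 37 deg C, then treated with compounds for 24 hr before luciferase detection reagent is added and luminescence is read after 12 min at room temperature. The HEK293 line carries constitutively active GLP-1R with a cAMP-responsive reporter.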
Further: nearly all actives have a fitted effect of over 55% in size.
On the % scale 0 is the no-effect control and ±100 the full control effect; potency means the concentration at half of the fitted maximal effect; tags describe the fitted curve by direction and shape.

UniProt P43220, sequence (P43220 whole entry, looked up): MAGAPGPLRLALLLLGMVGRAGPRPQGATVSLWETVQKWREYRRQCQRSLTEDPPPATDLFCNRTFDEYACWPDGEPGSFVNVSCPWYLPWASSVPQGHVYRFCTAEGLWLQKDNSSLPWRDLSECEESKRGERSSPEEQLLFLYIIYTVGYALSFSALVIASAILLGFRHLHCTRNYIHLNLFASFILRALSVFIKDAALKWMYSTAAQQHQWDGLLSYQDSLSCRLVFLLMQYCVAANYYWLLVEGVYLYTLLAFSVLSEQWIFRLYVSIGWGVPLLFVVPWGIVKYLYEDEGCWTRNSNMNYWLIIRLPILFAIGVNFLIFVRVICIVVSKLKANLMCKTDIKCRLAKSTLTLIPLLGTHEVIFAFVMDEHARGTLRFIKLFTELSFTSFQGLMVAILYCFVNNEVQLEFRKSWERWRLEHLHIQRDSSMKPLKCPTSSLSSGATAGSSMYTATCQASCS

Compound	Potency	activity change, negative = inhibition
CC(=O)c1cc(-c2ccccc2)n(CCC(=O)Nc2cc(C)cc(C)c2)c1C	inconclusive [inhibitor, partial curve, poor fit]	
O=C(NCCCc1ccccc1)C(=O)c1c[nH]c2ccccc12	inconclusive [inhibitor, single point]	
CCCCOc1ccccc1C1C(C(N)=O)=C(C)Nc2nnnn21 (configuration not stated)		inactive: 1.45%
CS(=O)(=O)N(CC(=O)Nc1ccccc1-c1ccccc1)c1ccccc1	inconclusive [inhibitor, partial curve, poor fit]	
O=C(Cn1cc(S(=O)(=O)Cc2ccc(F)cc2)c2ccccc21)NCc1ccccc1		inactive: -9.42%
CC(=O)N(C)C1=C(N2CCOCC2)C(=O)c2ccccc2C1=O	inconclusive [inhibitor, full curve, poor fit]	
Cc1ccc(N(C(=O)CCC(=O)Nc2cc(C)on2)C(C(=O)NC2CCCC2)c2cccs2)cc1 (configuration not stated)	inconclusive [inhibitor, partial curve, poor fit]	
S=C1NC2(CCCCC2)Nc2ccccc21	inconclusive [inhibitor, single point]	
O=[N+]([O-])C1C(c2ccccc2)C12c1ccccc1-c1ccccc12 (configuration not stated)	inconclusive [inhibitor, full curve, poor fit]	
O=C(N/N=C/c1ccccc1OCc1ccccc1Cl)c1cccnc1	inconclusive [inhibitor, single point]	
Cn1c(C(=O)NCc2cccc(F)c2)cc2cc(S(=O)(=O)N3CCCCC3)ccc21	inconclusive [inhibitor, single point]	
CC(OC(=O)C1CCCCC1)C(=O)Nc1cccc(Cl)c1 (configuration not stated)	inconclusive [inhibitor, single point]	
O=C1C(c2ccccc2)CN1Cc1ccccc1 (configuration not stated)		inactive: -2.01%
COc1ccc(Cl)cc1NC(=S)N(CCCN1CCOCC1)Cc1cn(C)c2ccccc12	inconclusive [inhibitor, single point]	
Cc1ccc(-c2nc(C(Cl)Cl)c3ccccc3n2)cc1	inconclusive [inhibitor, full curve, poor fit]	
O=C1NC[C@H](CCCCN2C[C@H](Cc3ccccc3)N(Cc3ccccc3)C(=O)C2=O)N(CCc2ccc(O)cc2)C1=O		inactive: 8.51%
Cc1cc(C)cc(SCc2noc(C(=O)NC(C)C)c2C(=O)O)c1	inconclusive [inhibitor, single point]	
CC(C)(C)NC(=O)COc1ccc(CNCCc2ccccc2)cc1	inconclusive [inhibitor, single point]	
Cc1ccc(NC2CCCN(C(=O)C3CCCCC3)C2)cc1C (configuration not stated)	inconclusive [inhibitor, partial curve, poor fit]	
Cc1cccc(C)c1Cn1c(C)c(C(=O)NCc2cccc(Cl)c2)sc1=O	inconclusive [inhibitor, partial curve, poor fit]	
COc1ccc(-c2ccc([C@H]3[C@@H]4C=CCC[C@@]4(C)C(=O)N3Cc3ccccc3)c(F)c2)cc1	inconclusive [inhibitor, partial curve, poor fit]	

Compound	Potency	activity change, negative = inhibition
COC(=O)c1ccc(NC2(C#N)C(=O)Nc3ccccc32)cc1 (configuration not stated)	inconclusive [inhibitor, partial curve, poor fit]	
Cc1cccc(-n2ncc(C(=O)NC3CCCC3)c2C2CCN(C(=O)OC(C)(C)C)CC2)c1	inconclusive [inhibitor, full curve, poor fit]	
CCCCN1CCNC[C@@H]1c1ccccc1		inactive: 17.5%
CC(=O)C1=C(C)NC(SCC(=O)c2ccc(Cl)cc2)=C(C#N)C1CC(C)C (configuration not stated)	inconclusive [inhibitor, single point]	
c1ccc(NCc2cccnc2)cc1		inactive: 12.2%
CCCCCCC(O)(c1ccccc1)C(CN1CCOCC1)c1ccccc1 (configuration not stated)	active: 3.55 µM	
C=Cc1ccc(CC2(C)C(=O)Nc3c(Cl)cccc32)cc1 (configuration not stated)	inconclusive [inhibitor, partial curve, poor fit]	
NC1=NC(c2ccc(Cl)cc2)C(C(=O)c2ccccc2)N1 (configuration not stated)	inconclusive [inhibitor, partial curve, poor fit]	
COc1cccc(/C(C#N)=C/c2c(-c3ccc(Cl)cc3)nc3c(C)cccn23)c1	inconclusive [inhibitor, partial curve, poor fit]	
CCCCNC(=O)c1cc(C)nn1-c1ccccc1		inactive: 3.46%
CC1CCN(CC(O)COCCOc2ccc(Br)cc2)CC1 (configuration not stated)	inconclusive [inhibitor, partial curve, poor fit]	
COc1ccccc1CCNC(C)CCc1ccc(O)cc1 (configuration not stated)	inconclusive [inhibitor, partial curve, poor fit]	
Cc1ccc(-c2nc3c(cnn3-c3ccccc3)c(=O)n2-c2ccc(Cl)cc2)cc1	inconclusive [inhibitor, single point]	
COC(=O)CC1COc2ccccc2N1C(=O)c1ccc(Br)cc1 (configuration not stated)	inconclusive [inhibitor, single point]	
CCOc1ccc(CCN2C(=S)N([C@@H](CC(C)C)CN3CCC[C@@H]3CN3C(=S)NC[C@@H]3Cc3ccccc3)C[C@@H]2Cc2ccc(O)cc2)cc1	inconclusive [inhibitor, single point]	
O=C(CNS(=O)(=O)c1ccc(Br)s1)N1CCN(c2ccccc2F)CC1	inconclusive [inhibitor, single point]	
O=[N+]([O-])c1ccc(-c2cnc(SC(c3ccccc3)c3ccccc3)[nH]2)cc1	inconclusive [inhibitor, full curve, poor fit]	
COC(=O)c1ccccc1OCCCOc1ccc(C=O)cc1OC		inactive: 0.556%
CC[C@H](C)[C@H]1CNC(=S)N1CC1CCN(CCCC2CCCC2)CC1		inactive: -30.9%
COc1ccc(-c2ccc(C#N)c(OC)n2)cc1		inactive: 42.6%
O=C(NCCc1ccc(Cl)cc1)C1COc2ccccc2O1 (configuration not stated)	inconclusive [inhibitor, partial curve, poor fit]	
